Test results taken from PubChem BioAssay AID1508624 (National Center for Advancing Translational Sciences (NCATS), 2021).
Among all 48,000 compounds or so, about 120 (0.25%) were called active. About 4% were inconclusive and are not listed. Calls follow the shape of the dose curve; as a rule, active = well fitted activation curve with a large enough effect; inconclusive = small, poorly fitted or top-dose-only effect, or another doubt; inactive = no such curve, though single readings can be large or run the other way. This is one part of the list.

experiment: Primary qHTS for Identification of Small Molecule Activators of Huntingtin-Antisense Promoter Activity; conditions: HEK293 HTT-AS promoter firefly luciferase reporter, 24 h; series mostly up to 57.5 µM; activity change, positive = activation: at the top concentration; also: nearly all actives have a fitted effect of over 55% in size
In short: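 Luminescence was read after Dual-Glo reagent and a 10 min room-temperature incubation. Values were normalized to vehicle (0% activity) and zero RLU (-100% activity). Reporter HEK293 cells had been exposed to compounds (up to 57.5 uM final) for 24 h.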

Activity change, positive = activation, inactive:
Cc1ccccc1NC(=O)c1oc2c(c1C)-c1nn(Cc3cccc(Cl)c3)cc1CC2 0.898%
Cc1nc(SCCOc2ccccc2F)[nH]c(=O)c1Cc1ccccc1 -3.75%
CC(C)(Oc1ccc(Br)cc1)C(=O)Nc1cc(-c2nc3ccccc3[nH]2)ccc1Cl -16%
O=C(CN1N=C(c2ccc(Cl)cc2)CCC1=O)NCCc1ccccc1 -6.29%
Cc1ccc(NC(=O)Cn2nc(Cc3ccncc3)c3ccccc3c2=O)c(Cl)c1 -14.9%
CNCc1ccccc1 -2.76%
CCc1c(C)nc2nncn2c1NCc1ccc(Cl)cc1 -43.6%
COc1ccccc1CNC(=O)CN1N=C(c2ccccc2)CCC1=O -0.933%
CCOc1ccc(NC(=O)c2oc3ccccc3c2NC(=O)c2ccc(OC)cc2OC)cc1 0.424%
N[C@@H](Cc1c[nH]c2ccc(O)cc12)C(=O)O
Cc1ccc(C)c(NC(=O)CSc2c(C)cnc3c2c(=O)n(C)c(=O)n3C)c1 -4.25%
O=C(Cn1cnc2nc3c(cc2c1=O)CCCC3)N1CCN(c2cccc(C(F)(F)F)c2)CC1 -2.58%
CCOc1ccc(OCC)c(NS(=O)(=O)c2c(C)[nH]c(=O)[nH]c2=O)c1 -7.85%
CN1C[C@@H]2C[C@H]1CN2c1cc2c(cc1F)c(=O)c(C(=O)O)cn2C1CC1 -11.4% [at 25.1 µM, percent change from vehicle, -100% = no light]
CCC(=O)N1c2ccccc2CC1C(=O)N1CCN(c2cccc(OC)c2)CC1 (stereo not drawn) -17.5%
CCc1ccc(NC(=O)Cn2ccn(-c3ccc(OC)cc3)c(=O)c2=O)cc1 -17.9%
Cc1ccc(N(C)C(=O)CC(C)S(=O)(=O)c2ccc3c(c2)NC(=O)CO3)cc1 (stereo not drawn) -20%
COc1ccc(CCNC(=O)c2csc3c2CCCCC3)c(OC)c1 -32.3%
COc1ccc(Cn2c(C(=O)O)c(CNC3CCCC3)c3ccc(C)cc32)cc1 -12.9%
COC(=O)c1cc2oc(C)cc2n1Cc1cc(C)ccc1C 13.1%
Cc1cccc(NC(=O)CC2Nc3cccc4cccc(c34)NC2=O)c1 (stereo not drawn) -19.9%
CCOc1ccc(NC(=O)CSc2nc(-c3cccc(Cl)c3)nc3c2Cc2c(CO)cnc(C)c2O3)cc1 -15.4%
Cc1ccc(C)c(NC(=O)Cn2ncc3c([nH]c4ccccc43)c2=O)c1 -15.2%
Cc1cccc(NC(=O)CSc2nc(-c3cccc(C)c3)nc3c2Cc2c(CO)cnc(C)c2O3)c1 -3.07%
CC1(C)Cc2c(c(N3CCOCC3)nc3sc(C(=O)Nc4ccc(Cl)cc4)c(N)c23)CO1 -7.83%
CCc1nc2ccc(C(=O)NCc3ccc(OC)c(OC)c3)cc2nc1CC 17.2%
Cc1ccc2c(CC(=O)Nc3cccc(C(F)(F)F)c3)coc2c1 -20.4%
Cc1ccc2c(c1)-c1onc(C(=O)N(C)c3cccc(C(F)(F)F)c3)c1CO2 -25.1%
Cc1ccccc1CNC(=O)Cn1c(C)c2cnn(-c3ccccc3)c(=O)c2c1C -13.5%
CCOC(=O)c1sc(N2C(=O)c3oc4ccccc4c(=O)c3C2c2ccc(C(C)(C)C)cc2)nc1C (stereo not drawn) 0.941% [at 11.5 µM, percent change from vehicle, -100% = no light]
CCCCOc1ccc(C(=O)Nc2cc(-c3ccc(C)cc3)no2)cc1 24.7%
Cc1cccn2c3c(c(=O)nc12)C(c1cccc(F)c1)CC(=O)N3 (stereo not drawn) -8.94%
Cc1ccc(CNC(=O)c2ccc3c(c2)CCN3S(=O)(=O)c2ccccc2)cc1 -20.9%
CC(C)C(=O)Nc1nnc(S(=O)(=O)N(C)Cc2ccc(F)cc2)s1 -10.9%
CCOc1ccccc1NC(=O)C1CCCN(c2ncnc3onc(-c4ccc(F)cc4)c23)C1 (stereo not drawn) -19.7%
COc1ccc(NC(=O)C2CCN(S(=O)(=O)c3cn(C)cn3)CC2)cc1Cl -4.71%
CC(=O)OCc1cnc(C)c2oc(=O)c(C(=O)Nc3cc(F)ccc3C)cc12 -7.69%
O=C(c1ccc([N+](=O)[O-])cc1)N(Cc1ccco1)c1ccccn1 -2.73%
NC(=O)CN1C(=O)C2(SCC(=O)N2c2cccc(F)c2)c2ccccc21 (stereo not drawn) -2.47%
Cc1cc(C)cc(NC(=O)c2cn3c4c(ccc(Cl)c4c2=O)OC(C)C3)c1 (stereo not drawn) -11.2%
CCCCn1c(=O)c2oc3ccccc3c2n(Cc2ccc(OC)cc2)c1=O -17.7%
COc1ccccc1CNC(=O)c1ccc(-c2nc(CS(=O)c3ccc(C)cc3)c(C)o2)cc1 (stereo not drawn) -34.7%
COc1ccc(S(=O)(=O)Nc2ccc3c(c2)sc(=O)n3C)cc1Cl -38.1%
CC(C)n1nc(-c2ccc3oc(N)nc3c2)c2c(N)ncnc21 -38.1%
Cc1cc2c(cc1S(=O)(=O)CCC(=O)N(C)C1CCCCC1)OCC(=O)N2 -10.3%
COCCN(Cc1ccco1)C(=O)Cn1ncc2c([nH]c3ccccc32)c1=O -16.1%
Cc1ccc(-c2nnn3c2nc(NCCc2ccccc2)c2ccccc23)cc1 10.1%
CN(c1ncnc2c1c(-c1ccccc1)cn2-c1cccc(Cl)c1)C1CCCCC1 -8.82%
CCc1ccc(CN(Cc2ccco2)C(=O)COc2ccccc2Cl)cc1 -38.1%
Cc1cccc(-n2c(=O)c3c(c4cc(C)ccc4n3C)n(C)c2=O)c1 -15.7%
Cc1ccc(C)c(C(=O)CSc2nc(-c3ccccc3)nc3c2CCCC3)c1 1.33%
OCc1ccc(Cl)cc1Cl -5.21%
Cc1c(Cl)cccc1NC(=O)N1CCC(CN2CCOCC2)CC1 4.83%
Cc1nc2cc(-c3ccc(Cl)cc3)nn2c(C)c1CCC(=O)N1CCN(c2ccccc2)CC1 -75.3%
CCCCCCCCCCCCCCCC(=O)OC[C@@H](NC(=O)C(Cl)Cl)[C@H](O)c1ccc([N+](=O)[O-])cc1 -15.1%
CCN(C(=O)CSc1nnc(-c2cc3occc3n2C)n1-c1ccccc1C)c1ccccc1 -3.37%
O=C(CN1C(=O)COc2ccc(S(=O)(=O)N3CCOCC3)cc21)NCc1ccc(Cl)cc1 -4.52%
CS(=O)(=O)c1ncc(Cl)c(C(=O)N2CCN(c3cccc(Cl)c3)CC2)n1 -94.3%
CC1c2ccccc2CN1NC(=O)c1ccc(Cl)c(S(N)(=O)=O)c1 (stereo not drawn) -7.76%
CCOc1ccc(Nc2sc(C(=O)c3ccc(F)cc3)c(N)c2S(=O)(=O)c2ccc(C)cc2)cc1 -12.4%
Cc1oc2ncn(CC(C)C)c(=O)c2c1C(=O)NCc1cccc(Cl)c1 -14.5%
CC(C)Oc1ccc(CNC(=O)c2cc3cccc4c3n2CC(C)S4)cc1 (stereo not drawn) -11.1%
CCc1ccc(-c2nc3c(c(SCc4ccccc4)n2)Cc2c(CO)cnc(C)c2O3)cc1 -13.9%
